The values below come from patent publication EP4681729A1 (Shanghai Mabgen Biotech Ltd., dated 2026).

Changes are numbered by the printed parent chain. Read-outs that look alike come from different tables or passages of the source.

Assay [1] concerns the target T1, human PVRIG expressed on cells (human, UniProt Q6DKI7 1-326).
T1 sequence (looked up): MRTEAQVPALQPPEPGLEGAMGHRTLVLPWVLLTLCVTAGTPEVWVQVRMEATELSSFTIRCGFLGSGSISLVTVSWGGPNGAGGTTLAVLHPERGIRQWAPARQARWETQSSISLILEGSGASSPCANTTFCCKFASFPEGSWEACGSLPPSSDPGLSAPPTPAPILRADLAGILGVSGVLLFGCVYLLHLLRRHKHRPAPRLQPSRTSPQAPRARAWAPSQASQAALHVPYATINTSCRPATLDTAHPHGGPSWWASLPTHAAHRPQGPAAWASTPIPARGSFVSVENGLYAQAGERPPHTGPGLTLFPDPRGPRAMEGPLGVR
The experiment in a line: cell-based or functional assay.

Assay [2] concerns the target T2, human PD-1 expressed on cells (human, UniProt Q15116 25-288). The experiment in a line: cell-based or functional assay.
The target of assay [3] is T2, human PD-1 expressed on cells. Put plainly: cell-based or functional assay. The source holds these as a separate data set.
T2 sequence (Q15116 25-288): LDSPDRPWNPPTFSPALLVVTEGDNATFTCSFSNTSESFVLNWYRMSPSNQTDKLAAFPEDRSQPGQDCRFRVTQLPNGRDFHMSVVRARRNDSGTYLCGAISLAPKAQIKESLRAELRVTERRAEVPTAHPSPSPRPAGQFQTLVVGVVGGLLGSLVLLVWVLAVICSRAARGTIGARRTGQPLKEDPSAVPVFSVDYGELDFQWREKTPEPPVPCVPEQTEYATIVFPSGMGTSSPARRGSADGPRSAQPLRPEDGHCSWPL
The target of assay [4] is T3, h-PVRIG-his (his-tagged human PVRIG recombinant protein) (human, UniProt Q6DKI7 41-171, limits assumed).
T3 construct: His tag; also called Human PVRIG-his; human PVRIG antigen (AcroBiosystem, PVG-H52H4)
T3 sequence (looked up): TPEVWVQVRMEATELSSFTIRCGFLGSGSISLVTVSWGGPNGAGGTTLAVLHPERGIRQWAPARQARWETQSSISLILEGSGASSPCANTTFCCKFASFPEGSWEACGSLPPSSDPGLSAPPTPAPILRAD
Put plainly: ELISA, plate coated with PVRIG protein (his tag, PVG-H52H4). Background: ELISA stands for enzyme-linked immunosorbent assay.

B1: 151 (anti-PVRIG nanobody, full length with human IgG4 Fc) (Fc fusion)
heavy: HVQLVESGGGSVQAGGSLRLSCVASASGFTYRPYCMAWFRQAPGKEREAVAGIDIFGGTTYADSVKGRFTASRDNAGFSLFLQMNDLKPEDTAMYYCAAGDSPDGRCPPLGQGLNYWGQGTQVTVSS[gap - human IgG4 Fc with S228P F234A L235A (EU numbers)]
Consider B1, for which, in assay [1], the “PVRIG reporter gene cell activity EC50” value worked out at 0.04 nM.

B2: A17_hIgG4 (Fc fusion)
heavy: EVQVVESGGGLVQPGGSLRLSCVASGLTFSDYSMSWYRQAPGKERELVAIISGSGVIAHYVDSVKGRFTISRDNAKSTVYLQMVSLKPEDRGVYYCRAVSDWDDYWGQGTQVTVSS[gap - human IgG4 Fc with S228P (EU numbers)]
Consider B2, for which, in assay [2], the “IC50 (nM), PD-1/PD-L1 NFAT reporter gene system” value (“IC50 (nM)” below) is 1.2 nM.

B3: A17m09_hIgG4 (Fc fusion)
chain: B2 heavy with V4L, V5Q, V23T, E44G, A58T, S77N, V84R, K87T, G92A, D103E
Consider B3, for which the “IC50 (nM)” value in assay [3] was 1.08 nM.

B4: A17m0901_hIgG4 (Fc fusion)
VHH-Fc: EVQLVESGGGLVQPGGSLRLSCAASGFTFSDYSMSWYRQAPGKGRELVAIISGSGVITHYVDSVKGRFTISRDNAKNTLYLQMRSLRAEDTAVYYCRAVSDWEDYWGQGTQVTVSS[gap - human IgG4 Fc with S228P (EU numbers)]
Regarding B4, the “IC50 (nM)” value in assay [3] is 0.531 nM.

B5: A17m0902_hIgG4 (Fc fusion)
VHH-Fc: B4 VHH-Fc with F27L
With B5, the “IC50 (nM)” value in assay [3] stood at 0.435 nM.

B6: A17h1_hIgG4 (Fc fusion)
chain: B2 heavy with V4L, V5Q, V23T, E44G, A75S, S77N, V84R, K87T, G92A
Consider B6, for which, in assay [3], the “IC50 (nM)” value came out at 1.04 nM.

B7: A17h1-1708-151H7-B (other, not shown: small tags and cut ends)
heavy: HVQLVESGGGLVQPGGSLRLSCVASASGFTYRPYCMAWFRQAPGKEREAVAGIDIFGGTTYADSVKGRFTASRDNAGFSLYLQMNSLRAEDTAVYYCAAGDSPDGRCPPLGQGLNYWGQGTMVTVSSGGGGSGGGGSEVQLVQSGAEVKKPGASVKVSCKASGYTFTNYWMHWVRQAPGQGLEWMGRIDPDSTGSKYNEKFKTRVTMTRDTSTSTVYMELSSLRSEDTAVYYCAREGAYGYYFDYWGQGTLVTVSSASTKGPSVFPLAPCSRSTSESTAALGCLVKDYFPEPVTVSWNSGALTSGVHTFPAVLQSSGLYSLSSVVTVPSSSLGTKTYTCNVDHKPSNTKVDKRV[gap - human IgG4 Fc with S228P (EU numbers)]
light (part 1 of 2): EVQLQESGGGLVQPGGSLRLSCTASGLTFSDYSMSWYRQAPGKGRELVAIISGSGVIAHYVDSVKGRFTISRDNSKNTVYLQMRSLTPEDRAVYYCRAVSDWDDYWGQGTQVTVSS
light (part 2 of 2): DIQMTQSPSSLSASVGDRVTITCRASENIYSYLAWYQQKPGKSPKLLIYNARTLAEGVPSRFSGSGSGTDFTLTISSLQPEDFATYYCQYHSGSPLPFGGGTKVEIKRTVAAPSVFIFPPSDEQLKSGTASVVCLLNNFYPREAKVQWKVDNALQSGNSQESVTEQDSKDSTYSLSSTLTLSKADYEKHKVYACEVTHQGLSSPVTKSFNRGEC
notes: also called PD-1/PVRIG/TIGIT-B
Turning to B7, the EC50 (as a rule, the concentration that produces a half-maximal response) in assay [4] came to 0.154 nM.

B8: A17h1-1708-151H7-D (other, not shown: small tags and cut ends)
heavy: B7 heavy
light (part 1 of 2): B7 light (part 2 of 2)
light (part 2 of 2): B7 light (part 1 of 2)
notes: also called PD-1/PVRIG/TIGIT-D
For the molecule B8, in assay [4], the EC50 came to 0.158 nM.
